Our source for the binding values is article PMC7180231.

Chains of the proteins cited; added tags and fusions are not shown. Lines headed by an entry give the natural chain unless they say otherwise; changes in a name come on top. Residues count along the entry.
UniProt Q98664: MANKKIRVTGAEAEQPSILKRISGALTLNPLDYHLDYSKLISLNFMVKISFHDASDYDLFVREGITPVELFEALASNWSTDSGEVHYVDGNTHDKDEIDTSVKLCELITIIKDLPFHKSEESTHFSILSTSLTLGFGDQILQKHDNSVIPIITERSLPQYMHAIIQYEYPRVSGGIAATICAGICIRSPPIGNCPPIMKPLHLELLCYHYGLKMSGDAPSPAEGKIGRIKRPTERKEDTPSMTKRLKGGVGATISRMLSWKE
RYSV M protein N-terminal fragment (1-131 aa), bait in pGBKT7 (pGBKT7-M-N-terminal): residues 1-131 of Q98664
RYSV M protein C-terminal fragment (132-262 aa), bait in pGBKT7 (pGBKT7-M-C-terminal): residues 132-262 of Q98664

Results are given in words; binding and its absence hold for the method and conditions named. For some assays here: In cells and extracts the contact can be indirect. Some entries that bind do so weakly or less than the wild type.

Experiment [1] deals with RYSV M-GST (pGEX-3X-M) (rice yellow stunt virus) (UniProt Q98664). Briefly: pull-down; GST pull-down: lysates with M-GST or GST bound to Glutathione Sepharose beads 4 h at 4°C, rinsed with 0.01 M PBS, then incubated with lysate of E. coli with His-NcHig-CCP2 4 h at 4°C; immunoblot with GST-tag and His-tag antibody; only the target purified. Background: In western blotting, separated proteins are transferred to a membrane and probed.

The target in experiment [2] is rice yellow stunt virus (RYSV) matrix (M) protein, bait in pGBKT7 (pGBKT7-M) (rice yellow stunt virus) (UniProt Q98664). Put plainly: two-hybrid; screen of a cDNA library of N. cincticeps with RYSV M; 178 positive colonies, 62 sequenced, 27 candidates annotated by BLASTX.
Experiment [3] shares this target. Put plainly: two-hybrid; Matchmaker Gal4 Two-Hybrid System 3; bait in pGBKT7, prey in pGADT7, co-transformed into yeast AH109; SD/-Leu/-Trp/-His/-Ade/X-alpha-gal plates.
Experiment [4] addresses RYSV M protein N-terminal fragment (1-131 aa), bait in pGBKT7 (pGBKT7-M-N-terminal) (rice yellow stunt virus) (UniProt Q98664). Described as above.
Experiment [5] has as its target RYSV M protein C-terminal fragment (132-262 aa), bait in pGBKT7 (pGBKT7-M-C-terminal) (rice yellow stunt virus) (UniProt Q98664). The description is as above.

Turning to “His-NcHig-CCP2 (pDEST17-NcHig-CCP2) (from UniProt A0A6M4C732 396-631) (domain or fragment)”, the binding entry in experiment [1] is “binds”. For “N. cincticeps homolog of the neural factor Hikaru genki (NcHig), clone found in the two-hybrid library screen (from UniProt A0A6M4C732 1-636)”, the binding entry in experiment [2] is given as “binds”.

In the case of “NcHig CCP2 domains (396-631 aa), prey in pGADT7 (pGADT7-Nc-CCP2) (from UniProt A0A6M4C732 396-631) (domain or fragment)”, the binding result in experiment [3] is given as “binds”; in experiment [4], “no binding”; in experiment [5], “no binding”.
